The source of these data is paper PMC9600911.

Chains of the proteins cited; added tags and fusions are not shown. Lines headed by an entry give the natural chain unless they say otherwise; changes in a name come on top.
UniProt Q68E01: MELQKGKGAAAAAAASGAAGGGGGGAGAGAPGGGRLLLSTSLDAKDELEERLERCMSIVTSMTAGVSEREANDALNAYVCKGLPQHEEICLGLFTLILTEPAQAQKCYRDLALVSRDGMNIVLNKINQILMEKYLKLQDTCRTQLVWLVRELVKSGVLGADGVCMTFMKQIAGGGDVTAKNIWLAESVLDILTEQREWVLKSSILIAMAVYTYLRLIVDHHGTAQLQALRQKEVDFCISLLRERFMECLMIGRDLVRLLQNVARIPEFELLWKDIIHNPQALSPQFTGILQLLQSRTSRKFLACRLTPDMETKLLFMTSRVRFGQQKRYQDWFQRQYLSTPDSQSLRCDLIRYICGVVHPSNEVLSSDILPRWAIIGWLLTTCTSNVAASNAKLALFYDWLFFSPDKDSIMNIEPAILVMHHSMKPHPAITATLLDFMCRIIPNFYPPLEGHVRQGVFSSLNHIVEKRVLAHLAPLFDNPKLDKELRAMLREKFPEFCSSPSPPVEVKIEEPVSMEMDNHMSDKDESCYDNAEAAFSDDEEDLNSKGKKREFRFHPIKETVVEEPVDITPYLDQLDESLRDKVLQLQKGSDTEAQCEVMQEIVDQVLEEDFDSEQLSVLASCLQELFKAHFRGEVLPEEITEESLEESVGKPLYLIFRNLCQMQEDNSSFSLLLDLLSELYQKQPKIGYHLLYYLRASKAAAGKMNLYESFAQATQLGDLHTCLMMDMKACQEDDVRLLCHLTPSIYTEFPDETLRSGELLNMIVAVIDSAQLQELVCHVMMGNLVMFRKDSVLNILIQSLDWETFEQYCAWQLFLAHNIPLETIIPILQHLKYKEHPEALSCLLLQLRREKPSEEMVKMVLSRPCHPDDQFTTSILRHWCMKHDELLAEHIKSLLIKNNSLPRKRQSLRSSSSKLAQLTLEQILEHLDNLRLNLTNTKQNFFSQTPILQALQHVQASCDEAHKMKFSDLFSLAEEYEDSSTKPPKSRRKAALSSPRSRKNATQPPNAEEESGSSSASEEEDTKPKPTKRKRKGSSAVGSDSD
UniProt P09874: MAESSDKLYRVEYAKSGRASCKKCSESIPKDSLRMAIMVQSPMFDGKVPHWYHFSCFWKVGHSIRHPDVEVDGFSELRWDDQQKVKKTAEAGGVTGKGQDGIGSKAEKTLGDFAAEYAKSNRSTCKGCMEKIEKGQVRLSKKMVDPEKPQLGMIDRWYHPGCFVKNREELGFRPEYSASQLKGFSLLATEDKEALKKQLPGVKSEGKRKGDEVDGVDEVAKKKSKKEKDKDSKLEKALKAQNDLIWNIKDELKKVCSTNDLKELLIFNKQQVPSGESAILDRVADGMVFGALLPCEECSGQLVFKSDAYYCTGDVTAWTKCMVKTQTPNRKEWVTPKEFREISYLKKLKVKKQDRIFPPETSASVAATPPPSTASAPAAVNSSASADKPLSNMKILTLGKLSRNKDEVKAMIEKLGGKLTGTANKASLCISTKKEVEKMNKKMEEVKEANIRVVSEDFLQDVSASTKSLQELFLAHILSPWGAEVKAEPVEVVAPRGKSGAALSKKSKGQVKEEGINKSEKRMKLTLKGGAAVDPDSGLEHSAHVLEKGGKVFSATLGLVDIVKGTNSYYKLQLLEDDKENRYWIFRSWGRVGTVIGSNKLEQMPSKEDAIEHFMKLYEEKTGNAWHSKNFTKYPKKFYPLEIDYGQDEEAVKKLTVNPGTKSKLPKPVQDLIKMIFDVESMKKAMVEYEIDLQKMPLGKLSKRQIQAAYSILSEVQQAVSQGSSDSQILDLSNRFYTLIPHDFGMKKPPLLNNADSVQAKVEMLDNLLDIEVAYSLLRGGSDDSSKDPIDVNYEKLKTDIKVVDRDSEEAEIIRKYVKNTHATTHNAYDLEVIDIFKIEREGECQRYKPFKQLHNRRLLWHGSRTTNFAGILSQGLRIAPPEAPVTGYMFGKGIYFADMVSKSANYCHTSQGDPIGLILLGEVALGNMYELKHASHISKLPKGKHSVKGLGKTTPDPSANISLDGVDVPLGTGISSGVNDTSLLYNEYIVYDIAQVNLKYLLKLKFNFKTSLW

The target in test [1] is recombinant GST-tagged full-length IntS3 (UniProt Q68E01). Kind of test: pull-down; GST-FL-IntS3 bound to glutathione beads, incubated with His-tagged PARP1 constructs; blot with anti-His; also with PARP1 pre-incubated with DNA or RNA for 30 min; both purified.
In test [2] the target is recombinant His-tagged full-length PARP1 (UniProt P09874). Kind of test: co-IP; recombinant His-FL-PARP1 immobilised through PARP1 antibody (legend: His antibody) on protein-G beads, incubated with GST-tagged IntS3 constructs; several stringent washes; blot with anti-GST; both purified.
Test [3] addresses T1, Integrator subunit 3 (IntS3), endogenous in Drosophila S2 cells (Drosophila melanogaster (endogenous in S2)) (UniProt Q7PLS8).
T1 sequence: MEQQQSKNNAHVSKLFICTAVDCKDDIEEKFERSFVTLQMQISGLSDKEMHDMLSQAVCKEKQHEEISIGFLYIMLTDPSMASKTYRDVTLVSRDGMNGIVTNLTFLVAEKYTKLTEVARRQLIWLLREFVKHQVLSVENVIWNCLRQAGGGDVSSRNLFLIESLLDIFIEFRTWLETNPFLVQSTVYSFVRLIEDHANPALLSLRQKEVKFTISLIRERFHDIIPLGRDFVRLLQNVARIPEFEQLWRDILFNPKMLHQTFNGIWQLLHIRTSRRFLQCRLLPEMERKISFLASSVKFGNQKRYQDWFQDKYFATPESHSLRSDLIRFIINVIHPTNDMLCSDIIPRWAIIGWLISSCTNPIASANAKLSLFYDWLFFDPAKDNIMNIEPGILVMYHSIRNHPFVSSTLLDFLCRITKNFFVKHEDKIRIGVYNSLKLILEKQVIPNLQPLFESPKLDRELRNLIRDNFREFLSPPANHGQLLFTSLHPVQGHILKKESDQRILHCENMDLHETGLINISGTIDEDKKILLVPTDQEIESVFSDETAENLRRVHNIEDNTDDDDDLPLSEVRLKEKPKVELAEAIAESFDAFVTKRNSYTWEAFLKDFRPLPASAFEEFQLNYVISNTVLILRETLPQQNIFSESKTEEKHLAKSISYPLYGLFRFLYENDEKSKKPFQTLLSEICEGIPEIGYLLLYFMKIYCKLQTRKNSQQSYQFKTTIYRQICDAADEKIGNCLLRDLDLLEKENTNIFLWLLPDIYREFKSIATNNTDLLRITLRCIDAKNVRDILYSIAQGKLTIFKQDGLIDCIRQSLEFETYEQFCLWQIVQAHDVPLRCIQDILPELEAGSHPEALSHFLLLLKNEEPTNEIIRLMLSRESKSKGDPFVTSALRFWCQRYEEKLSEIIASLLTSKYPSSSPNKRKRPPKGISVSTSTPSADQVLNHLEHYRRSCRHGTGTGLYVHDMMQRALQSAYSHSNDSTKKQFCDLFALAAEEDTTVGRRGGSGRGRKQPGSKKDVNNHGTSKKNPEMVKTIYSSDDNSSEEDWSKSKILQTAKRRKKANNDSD
Description: co-IP; S2 nuclear lysates; PARP1 or IntS3 antibody on protein G beads; highly stringent conditions (0.4 M KCl, 0.05% NP-40); WT and PARP1 siRNA knock-down cells; IgG control.

Test [4] has as its target T2, PARP1 (poly (ADP-ribose) polymerase 1), endogenous in Drosophila S2 cells (Drosophila melanogaster (endogenous in S2)) (UniProt P35875).
T2 sequence: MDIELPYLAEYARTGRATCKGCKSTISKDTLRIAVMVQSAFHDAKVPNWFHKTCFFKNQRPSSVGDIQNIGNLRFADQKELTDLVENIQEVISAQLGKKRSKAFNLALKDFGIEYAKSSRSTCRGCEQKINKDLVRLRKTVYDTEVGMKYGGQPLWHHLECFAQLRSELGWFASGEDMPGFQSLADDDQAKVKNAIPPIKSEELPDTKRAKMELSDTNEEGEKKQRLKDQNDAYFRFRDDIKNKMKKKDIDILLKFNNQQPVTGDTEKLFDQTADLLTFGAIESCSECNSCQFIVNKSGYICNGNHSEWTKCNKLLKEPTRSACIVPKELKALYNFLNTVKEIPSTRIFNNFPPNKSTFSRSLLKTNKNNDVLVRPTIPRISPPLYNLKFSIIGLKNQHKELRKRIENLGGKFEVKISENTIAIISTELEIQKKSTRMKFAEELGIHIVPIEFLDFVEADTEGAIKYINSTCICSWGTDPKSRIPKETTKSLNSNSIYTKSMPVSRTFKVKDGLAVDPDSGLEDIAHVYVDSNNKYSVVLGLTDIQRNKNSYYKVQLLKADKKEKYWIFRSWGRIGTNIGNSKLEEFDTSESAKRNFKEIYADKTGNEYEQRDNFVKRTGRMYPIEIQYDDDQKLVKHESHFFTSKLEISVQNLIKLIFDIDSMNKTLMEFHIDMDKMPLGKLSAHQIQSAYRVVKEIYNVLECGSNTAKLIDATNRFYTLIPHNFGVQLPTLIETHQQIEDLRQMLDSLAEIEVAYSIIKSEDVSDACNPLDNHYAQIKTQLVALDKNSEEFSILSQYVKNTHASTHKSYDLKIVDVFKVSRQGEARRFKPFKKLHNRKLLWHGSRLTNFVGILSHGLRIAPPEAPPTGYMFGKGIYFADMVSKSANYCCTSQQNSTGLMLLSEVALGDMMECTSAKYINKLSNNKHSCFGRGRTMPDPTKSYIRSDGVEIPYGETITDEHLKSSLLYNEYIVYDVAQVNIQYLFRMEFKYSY
Described as above.

Results are given in words; binding and its absence hold for the method and conditions named. For some of these results: In cells and extracts the contact can be indirect. Some binding calls cover weakened binding; strength is not graded here.

As for “His-tagged PARP1 BRCT domain only (from UniProt P09874 385-476) (domain or fragment)”, the binding result in test [1] is “binds”.
As to “recombinant GST-tagged full-length IntS3 (from UniProt Q68E01 1-1043)”, in test [2], the binding result is recorded as “binds”.
Take “recombinant His-tagged full-length PARP1 (from UniProt P09874 1-1014)”: the binding result in test [1] is recorded as “binds”.
Regarding “recombinant His-tagged full-length PARP1, auto-PARylated with NAD+ (from UniProt P09874 1-1014)”, the binding result in test [1] was “binds”.

B1: PARP1 (poly (ADP-ribose) polymerase 1), endogenous in Drosophila S2 cells (protein, UniProt P35875 1-994)
chain: T2 sequence
As for B1, the binding result in test [3] is on record as “binds”.

B2: cyclin T1 (CycT1, a member of the P-TEFb complex), endogenous in Drosophila S2 cells (protein, UniProt O96433 1-1097)
chain: MSLLATPMPQAATASSSSSASAAASASGIPITANNNLPFEKDKIWYFSNDQLANSPSRRCGIKGDDELQYRQMTAYLIQEMGQRLQVSQLCINTAIVYMHRFYAFHSFTHFHRNSMASASLFLAAKVEEQPRKLEHVIRAANKCLPPTTEQNYAELAQELVFNENVLLQTLGFDVAIDHPHTHVVRTCQLVKACKDLAQTSYFLASNSLHLTSMCLQYRPTVVACFCIYLACKWSRWEIPQSTEGKHWFYYVDKTVSLDLLKQLTDEFIAIYEKSPARLKSKLNSIKAIAQGASNRTANSKDKPKEDWKITEMMKGYHSNITTPPELLNGNDSRDRDRDRERERERERDPSSLLPPPAMVPQQRRQDGGHQRSSSVSGVPGSSSSSSSSSHKMPNYPGGMPPDAHTDHKSKQPGYNNRMPSSHQRSSSSGLGSSGSGSQRSSSSSSSSSQQPGRPSMPVDYHKSSRGMPPVGVGMPPHGSHKMTSGSKPQQPQQQPVPHPSASNSSASGMSSKDKSQSNKMYPNAPPPYSNSAPQNPLMSRGGYPGASNGSQPPPPAGYGGHRSKSGSTVHGMPPFEQQLPYSQSQSYGHMQQQPVPQSQQQQMPPEASQHSLQSKNSLFSPEWPDIKKEPMSQSQPQPFNGLLPPPAPPGHDYKLNSHPRDKESPKKERLTPTKKDKHRPVMPPVGSGNSSSGSGSSKPMLPPHKKQIPHGGDLLTNPGESGSLKRPNEISGSQYGLNKLDEIDNSNMPREKLRKLDTTTGLPTYPNYEEKHTPLNMSNGIETTPDLVRSLLKESLCPSNASLLKPDALTMPGLKPPAELLEPMPAPATIKKEQGITPMTSLASGPAPMDLEVPTKQAGEIKEESSSKSEKKKKKDKHKHKEKDKSKDKTEKEERKKHKKDKQKDRSGSGGSKDSSLPNEPLKMVIKNPNGSLQAGASAPIKLKISKNKVEPNNYSAAAGLPGAIGYGLPPTTATTTSASIGAAAPVLPPYGAGGGGYSSSGGSSSGGSSKKKHSDRDRDKESKKNKSQDYAKYNGAGGGIFNPLGGAGAAPNMSGGMGAPMSTAVPPSMLLAPTGAVPPSAAGLAPPPMPVYNKK
As to B2, the binding result in test [4] is recorded as “no binding”.

B3: Integrator subunit 3 (IntS3), endogenous in Drosophila S2 cells (protein, UniProt Q7PLS8 1-1068)
chain: T1 sequence
For B3, in test [4], the binding result is “binds”.
